According to PubChem BioAssay AID1346428 (National Center for Advancing Translational Sciences (NCATS), 2018):
Among all 48,000 compounds or so, about 1,200 (2.5%) were called active. Another 2% or so got no clear call; they are omitted.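 Rule for the calls: active = activation of at least 60% and not above a set upper limit (about 1 call in 100 departs from these limits); inconclusive = activation of 40% to 60%, or above that upper limit; inactive = activation under 40%.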 The list shows a part of the results.

The molecules below were run against Probable G-protein coupled receptor 32 (Homo sapiens) (UniProt O75388) (assay: qHTS for Agonists of Human Resolvin D1 Receptor DRV1). Settings: CHO-K1 GPR32 beta-arrestin PathHunter luminescence, 90 min; at 76.9 µM; stronger effect = higher value; zero percent set by DMSO-only wells.
UniProt O75388, sequence (O75388 whole entry, looked up): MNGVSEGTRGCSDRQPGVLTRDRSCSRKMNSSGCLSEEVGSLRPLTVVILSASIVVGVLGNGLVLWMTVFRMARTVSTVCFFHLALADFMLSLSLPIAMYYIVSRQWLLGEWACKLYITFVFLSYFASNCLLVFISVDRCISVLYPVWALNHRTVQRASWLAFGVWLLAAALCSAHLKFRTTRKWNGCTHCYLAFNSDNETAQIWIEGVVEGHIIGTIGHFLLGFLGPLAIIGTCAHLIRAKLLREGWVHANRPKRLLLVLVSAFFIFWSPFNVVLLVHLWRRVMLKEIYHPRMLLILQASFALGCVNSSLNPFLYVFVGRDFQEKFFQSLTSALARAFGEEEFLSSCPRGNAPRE
Summary of the method: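 Cells are plated overnight, treated with compounds in DMSO for 90 minutes at 37 °C, and developed with PathHunter detection reagent for 1 hour before luminescence is read; signal reflects beta-arrestin binding to GPR32 in engineered CHO-K1 cells.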
Note: 0% is about no effect.

Compound	activation
CCCCCCCCCCCCCCCCO	inactive: 3.85%
CCN(C(=O)c1ccc2c(=O)n3c(nc2c1)CCCCC3)c1cc(C)ccc1C	inactive: -20%
Cc1ccc(C(=O)CC2(O)C(=O)N(Cc3ccccc3)c3ccc(Br)cc32)cc1 (stereo not given)	inactive: -18.8%
CC1CCN(c2ncnc3c2nnn3C)CC1	inactive: -2.12%
O=C(Cn1c(=O)n(-c2ccc(Cl)cc2)c(=O)c2oc3ccccc3c21)Nc1ccccc1	inactive: -9.4%
O=c1[nH]c2cc(Cl)ccc2c(O)c1-c1ccc(Oc2ccccc2)cc1	inactive: -7.89%
CCN(CC)S(=O)(=O)c1nnc(NC(=O)c2ccc(C(C)C)cc2)s1	active: 75.4%
O=C(c1ccco1)N1CCN(c2nc3c(Cl)cccc3s2)CC1	inactive: -6.63%
Cn1cnc(S(=O)(=O)N2CCC(C(=O)NCc3ccc(F)cc3)CC2)c1	inactive: -12.1%
COc1ccc(C2=C(C)C(=O)N(Cc3ccc(C(=O)Nc4cc(C)ccc4C)cc3)S2(=O)=O)cc1	inactive: -1.99%
COc1cccc(C(=O)Nc2ccccc2-c2nnc(-c3cc(OC)ccc3Br)o2)c1	inactive: -11.2%
Cc1cccc(N2CCN(CCCNC(=O)c3nnc(Cc4c(F)cccc4Cl)o3)CC2C)c1 (stereo not given)	inactive: -3.37%
CCCSS/C(CCO)=C(\C)N(C=O)Cc1cnc(C)nc1N	inactive: -39.7%
COc1cc(CC(=O)O)ccc1O	inactive: 8.61%
Cc1nn2c(=O)cc(COC(=O)c3cccc(NC(=O)c4ccc(C(C)(C)C)cc4)c3)nc2s1	inactive: -8.33%
COc1cccc(C(=O)Nc2ccc3nc(N4CCC(C)CC4)cc(C)c3c2)c1	inactive: 23.1%
O=C(COC(=O)c1cccc(NC(=O)c2ccc(Br)cc2)c1)c1ccc(Br)cc1	inactive: 5.84%
CCOC(=O)c1[nH]c2c(c1Cc1ccccc1OC)C(=O)CC(c1ccc(OCC)cc1)C2 (stereo not given)	inactive: -23.5%
COc1ccc(C(=O)CCC(=O)Nc2ccc(OC)c(Cl)c2)cc1	inactive: -14.8%
CCN(CC)S(=O)(=O)c1ccc2c(c1)N(CC(=O)Nc1ccc(C)cc1C)C(=O)C1CCCN21 (stereo not given)	inactive: -28.4%
COc1ccccc1N1CCN(c2nc3ccc(C)cc3n3nnnc23)CC1	inactive: -9.29%
CC(C)NC(=O)c1ccccc1NC(=O)c1nsc2ccccc12	inactive: 5.24%
Cc1ccc(S(=O)(=O)c2nc(S(C)(=O)=O)sc2NCc2ccccc2)cc1	inactive: -22.2%
CCOC(=O)c1c(C)oc2nc(C)nc(NCCc3ccc(SC)cc3)c12	inactive: 1.46%
COc1cc(NC(=O)Cn2nc(-c3ccc(C)c(C)c3)ccc2=O)cc(OC)c1	inactive: -19.1%
COc1ccc(C2=CC(c3cccc(C)c3)n3nnnc3N2)cc1 (stereo not given)	inactive: -34%
COc1ccc(C)cc1NC(=O)CSc1ccc(-c2ccccn2)nn1	inactive: 2.57%
CCOC(=O)c1ccc(OC(=O)CCCCCN=C(N)N)cc1	inactive: 20.4%

Compound	activation
Cc1cccc(NC(=O)c2oc3ccccc3c2NC(=O)c2cc(=O)c3cc(Cl)ccc3o2)c1	inactive: -11.5%
COc1ccccc1C(=O)Nc1c(C(=O)N(C)c2ccccc2)sc2nc(C)cc(C)c12	inactive: -17.1%
Cn1c(=O)c2sccc2n2c(CCC(=O)NCc3ccccc3Cl)nnc12	inactive: 11.1%
COc1ccc(CNC(=O)C2CCN(C(=O)N3CC(C)Oc4ccc(C)cc43)CC2)cc1 (stereo not given)	inactive: -9.63%
CN(Cc1ccccc1)C(=O)C1CCN(S(=O)(=O)c2ccc3nc4c(c(C(=O)O)c3c2)CCCC4)CC1	inactive: -26.9%
O=C(CCS(=O)(=O)c1cc(Br)cc2c1N(C(=O)C1CC1)CC2)Nc1ccc(C(F)(F)F)cc1	inactive: -8.56%
COc1cccc(CNC(=O)CN2C(=O)COc3ccc(S(=O)(=O)Nc4ccccc4)cc32)c1	inactive: 2.74%
COc1ccc(-c2nc(Cn3c(SCc4ccccc4F)nc4ccncc43)c(C)o2)cc1OC	inactive: -12.2%
O=C(Nc1ccc(Cl)cc1)c1cc(S(=O)(=O)N2CCc3ccccc32)ccc1F	inactive: -18.8%
CCOc1ccc(C(=O)Nc2cc(-c3cn4cccnc4n3)ccc2C)cc1OCC	inactive: -4.14%
COc1ccc(CCNC(=O)c2c(C)oc3ncn(CC(C)C)c(=O)c23)cc1OC	inactive: -15.1%
CCn1cc(C(=O)NCCc2ccc(C)cc2)c(=O)c2cc(S(=O)(=O)N3CCCCC3)ccc21	inactive: -1.01%
Cc1cc(C)cc(NC(=O)C2CCC(CNS(=O)(=O)c3ccc4c(c3)C(C)(C)C(=O)N4C)CC2)c1 (stereo not given)	inactive: -15.8%
CCOc1ccc(Br)cc1CNCCSc1nnnn1-c1ccccc1	inactive: 21.1%
CCc1ccccc1NC(=O)CN1C(=O)c2cccnc2Oc2ccc(Cl)cc21	inactive: -24.8%
CCc1ccc(NC(=O)c2nn(-c3ccc(C)cc3)c(=O)n(C)c2=O)cc1	inactive: -9.99%
COC(=O)NCc1c(C)nn(-c2ccccc2)c1-n1cccc1	inactive: 1.1%
Cc1ccc(C)c(NC(=O)C(=O)NCCc2csc3nc(-c4ccccc4C)nn23)c1	inactive: -11.6%
COc1ccc(CNC(=O)c2cc3c(s2)-c2c(C)cccc2OC3)cc1	inactive: 48%
CNC(=O)c1sc2ncccc2c1-n1cccc1	inactive: -6.16%
CCCS(=O)(=O)N1CC(=O)N(c2ccccc2C)C(C)(C(=O)NC2CCCC2)C1 (stereo not given)	inactive: 4.06%
Cn1c(=O)n(-c2cccc(Cl)c2)c(=O)c2sc3ccccc3c21	inactive: -0.743%
Cc1cc(NC(=O)Cn2nc(C)n3cccc3c2=O)ccc1Br	inactive: -21.4%
CCOC(=O)N1CCC2(CC1)OC(=O)C(C)=C2C(=O)NCc1cccc(OC)c1	inactive: -7.48%
COc1ccc(NC(=O)CC2C(=O)N(c3ccc(C)cc3)C(=O)N2Cc2cccnc2)cc1 (stereo not given)	inactive: 0.554%
CCN1CCN(Cc2c(O)ccc3c(C)c(-c4ccccc4)c(=O)oc23)CC1	inactive: -7.06%
Cc1cccc(-n2ncc(C(=O)NCc3ccccn3)c2C2CCN(C(=O)OC(C)(C)C)CC2)c1	inactive: -14.6%
